For 22 molecules, binding signal results are on record in article PMC12136788.

Sequences and labels used below:
B1: chr4:145760401:145760502:-|3pUTR|ENSG00000151612|unk|FALSE|unique (ssRNA)
RNA: GGGAGUUCUACAGUCCGACGAUCUCCGUACUUUUCUCUGAAAGGAAUCUUGUCUUGUUAAACCCUAAAGAGAGUGUCCUUAAUAGCAAUCAGCACUUGUAAGCUUAUAUACUGGUGCAUUUGGUUUUCUGUUGGGUGAAUGCGCAACAGAGGAUUGAGCAUCA
B2: ENSG00000124766:be:win_2301|3pUTR|ENSG00000124766|bound_else_gene|NA|bound_elsewhere_windowed (ssRNA)
RNA: GGGAGUUCUACAGUCCGACGAUCGCUGGGCCUCCGCCUUCUUUUCUACGUGAAAUCAGUGAGGUGAGACUUCCCAGACCCCGGAGGCGUGGAGGAGAGGAGACUGUUUGAUGUGGUACAGGGGCAGUCAGUGGAGGGCGAGUGCAACAGAGGAUUGAGCAUCA
B3: chr3:165187899:165190830:-|CDS|ENSG00000121871|control|control|control (ssRNA)
RNA: GGGAGUUCUACAGUCCGACGAUCAAAUGGUGGGGUGGUGCUGUUUCCUCCUGGGGGAGGCUGUGGUAGUGGCAGUAUGCUACUAGAUCGAGAGAGGCCACAGCCUGCCCCCUGCACAGUGGGAUUUGUGGACUGUCUCUAUGGCAACAGAGGAUUGAGCAUCA
B4: chr4:56448489:56448593:+|CDS|ENSG00000128050|unk|total|mutant (ssRNA)
RNA: GGGAGUUCUACAGUCCGACGAUCCCCACAGUGGUCUGAGGAACAGCUGAUUGCUGCAAAAUUUUGCUUUGCUGGACUUCUUACCGGCCAGACUGAAGUGGAUAUCAUGAGUCAUGCUACACAGGCUAUAUUUGAAAUACUGGACAACAGAGGAUUGAGCAUCA
B5: chr20:38750096:38750197:+|CDS|ENSG00000101442|unk|FALSE|unique (ssRNA)
RNA: GGGAGUUCUACAGUCCGACGAUCGCAAAUGAUGUCUGAGCUUCUUUUUGAGUGCUACGGGAUUCCCAAGGUUGCCUAUGGAAUAGACAGCCUCUUCAGCUUCUACCACAAUAAGCCAAAGAACUCGAUGUGCAGUGGGCUAAUCAACAGAGGAUUGAGCAUCA
B6: chr19:39539560:39539696:-|CDS|ENSG00000176396|unk|FALSE|unique (ssRNA)
RNA: GGGAGUUCUACAGUCCGACGAUCCGGGAACGGAGGCCUGGCUGCGUUGCCCUAUCUCCGUCUCCGCCACCCACUUAGCGUUUUAGGCAUCAAUUACCAGCAGUUUCUCCGCCACUAUCUGGAAAAUUACCCGAUUGCUCCCGGCAACAGAGGAUUGAGCAUCA
B7: chr4:17843545:17843646:+|3pUTR|ENSG00000109805|msi1|total|mutant (ssRNA)
RNA: GGGAGUUCUACAGUCCGACGAUCCUGUGCGCUUCCACGUUACUUUGGCCUGUAUUAAAGCAGCCGAGCAGCAUCAGUUAUUACCGUCCAGAAAAAGUGUGCAUCAGUCAGUCACACAGAUUUAUCACAAUCUGAGGUGGGCCUCAACAGAGGAUUGAGCAUCA
B8: chr9:130136078:130136182:+|3pUTR|ENSG00000148358|msi1_unk|FALSE|overlapping (ssRNA)
RNA: GGGAGUUCUACAGUCCGACGAUCAGUCCAAGCAAAUCAUCCCCAUUAAAAAGCUUUUCCUGUAGGCUAGUAGGAUUUCUAAAUAGAUGAAUUCAACAGACUUGGUCCCCAUAGUCCAAGAGUAUGUAUGUGAAGAAAGUGAGCCAACAGAGGAUUGAGCAUCA
B9: chr1:61462620:61462721:+|3pUTR|ENSG00000162599|unk|FALSE|unique (ssRNA)
RNA: GGGAGUUCUACAGUCCGACGAUCCUGUGGGCGUCCAUUCUUAUUCAACUAAAUCUCCACAGGUUUUUUGAGCUGGUGUGGAUUAGUUUAACUCUUGUAUUCAACCAUUAGUGCUACCACCUUCUCACAUUACAAUACAAUUACCAACAGAGGAUUGAGCAUCA
B10: ENSG00000070961:be:win_5201|3pUTR|ENSG00000070961|bound_else_gene|NA|bound_elsewhere_windowed (ssRNA)
RNA: GGGAGUUCUACAGUCCGACGAUCUUUAGAUGCAAUAAUUAACCAUAUGCUAGAAUGCCCACCUCUAAGCCAAUUGGAUUCUUUAGCUCUCUUUUUCUUUCCUUCAUCUACCUUCUUCUCUUUUUUGCCUCUGUCUUUACCCUUCAACAGAGGAUUGAGCAUCA
B11: chr13:49308649:49310813:-|three_prime_utr|ENSG00000102547|control|control|control (ssRNA)
RNA: GGGAGUUCUACAGUCCGACGAUCGUCAUCAUUCUUGGGAAGACUUUGGAGGUGCCUAUUUUUUCUGCUGUAAUUGUUCUGGGUAGAUGGAGUAUAAACAUUUGAAUGGAAAAAAAUUAACCUAGAAUAAUAUAUUCAUUUUAGCAACAGAGGAUUGAGCAUCA
B12: chr15:38352922:38353023:+|3pUTR|ENSG00000166068|msi1|FALSE|unique (ssRNA)
RNA: GGGAGUUCUACAGUCCGACGAUCUACAUAUAAAUUUAUUUCUUUUGCAGAGCAUUAUAUUACUGGAUGUUUAAUUUACAAAAUAGUUGGGUAAAUGUUCCAACAAACUUUAAAGUACCUUGAAGUCAAAUUGUCUGUUUUUGUCAACAGAGGAUUGAGCAUCA
B13: chr1:203741488:203741589:+|3pUTR|ENSG00000058668|msi1|FALSE|unique (ssRNA)
RNA: GGGAGUUCUACAGUCCGACGAUCGCCAGUUCAUGUCCCUGACUCUCACCUCCCAUUAGAUAAAUGAAGCCCACCCCCCUUUCUAGAGUGAUGAGAGUCAAGAAGAGGGGAUGUAUGAACGGCCAAAUUCCCAUGUGAGAGGAACAACAGAGGAUUGAGCAUCA
B14: chr1:228494639:228494729:+|3pUTR|ENSG00000168159|msi1_unk|FALSE|overlapping (ssRNA)
RNA: GGGAGUUCUACAGUCCGACGAUCGCCAUCGUGUCUCAUCUUGCUGUUAUCUCUAGCUCUUUCCCUCCUCCCAUUUCCUUUAGUAGUUGAAUUUUGCAAAGCUUGUAGCAGUAGCUCAGUUGCCUGCAGCAUCCUUGUGUGUAGCAACAGAGGAUUGAGCAUCA
B15: chr5:154417748:154417849:+|3pUTR|ENSG00000164574|msi1|FALSE|unique (ssRNA)
RNA: GGGAGUUCUACAGUCCGACGAUCCAGCACCAGCUUUACAGGGCAGUGUUUCAGAUGGCCCUGAGCCCACGGAAAAGGCCAGGUAGACCUCCAAACUAGAAAUGCUGGCUGAUUUGCCCUGAUCCAUGCUUCCAUUUCCCUGUCCAACAGAGGAUUGAGCAUCA
B16: chr20:3963869:3963970:-|CDS|ENSG00000101236|unk|total|mutant (ssRNA)
RNA: GGGAGUUCUACAGUCCGACGAUCAAUCUGCCUCUCAACAUAUAUAUUGUGGUUUUUGGUACUGCUAUAUUUGUCUUCAUCCUCCGUUUACUCUUCUGUUGCUACUUGAUCCGGUAACCAAUUUUCAUUCUAUGUUACUUCAAACAACAGAGGAUUGAGCAUCA
B17: chr4:113336597:113336699:+|CDS|ENSG00000145362|unk|total|mutant (ssRNA)
RNA: GGGAGUUCUACAGUCCGACGAUCACCUAUGCACAGUGAGCUGGUUAAGAAGAUCCCCGGCAACAAAGCUACCUUCAGCCCUACCGUCACUUUGGAACCCCGAAGAAGAAAAUUCCACAAACCAAUUACCAUGACCAUUCCUGUCAACAGAGGAUUGAGCAUCA
B18: chrX:41141081:41141111:+|CDS|ENSG00000124486|msi1_unk|total|mutant (ssRNA)
RNA: GGGAGUUCUACAGUCCGACGAUCCACUCUUCAUACAGUGAAAAAGUACUUUCUUCCAAUAACCGAAAUGGUUCCACAGUUUUCCGAAAACUUAACUGAUGAAGAACUGAAAAAAGAAGCAAAGAAUGAAGCCAAAAAUGAUGCCAACAGAGGAUUGAGCAUCA
B19: ENSG00000107863:be:win_5251|CDS|ENSG00000107863|bound_else_gene|NA|bound_elsewhere_windowed (ssRNA)
RNA: GGGAGUUCUACAGUCCGACGAUCAGAGGCGAAUCCGAAAAACAGGAACCCACAUGGAAAACGAAAAUAGCAGAUCGGUUAAAACUGAGACCCAGAGCCCCUGCGGAUGACAUGUUUGGAGUAGGGAAUCACAAAGUGAAUGCCCAACAGAGGAUUGAGCAUCA
B20: ENSG00000178764:stop:overlap|stop_codon|ENSG00000178764|stop_codon|NA|stop_codon (ssRNA)
RNA: GGGAGUUCUACAGUCCGACGAUCGUGUGUCGGAACUGGCUGAAUCAGACUCCGACUGCGUCCCUGCAGAGGCUGGCCAGGCCUAGACAGGGAAGUCUGUUAGAACUGCUGUGCUGAUCAACGGGACGCUCCGUCUUUGAAGAACAACAGAGGAUUGAGCAUCA
B21: chr12:103267852:103268962:-|three_prime_utr|ENSG00000179088|control|control|control (ssRNA)
RNA: GGGAGUUCUACAGUCCGACGAUCUCCUGCACCUGCCUUCUUGAAAGAAAACAAGACAUCAGAUACUUAUUCAAAUAAUGGAAUAGCUGAUCAACUGGGUCUCCACACAAAAGAGAGUUAUCCAUGAUAAAAGAACAACUUUUUCAACAGAGGAUUGAGCAUCA
B22: chr7:94537565:94537673:+|CDS|ENSG00000127995|unk|total|mutant (ssRNA)
RNA: GGGAGUUCUACAGUCCGACGAUCGAAGCCUGCCGAUGGGUCCUGUUGUCAACCUCGGCCUCCUGUUACUCUCAUACAGAAGCCCGCUGCUUGUUUUUUCACUUUAUCUAUUAUCGGAUAUUUAAUUUUUUACAUAAUUCAUCGCAACAGAGGAUUGAGCAUCA

Some of the results follow.

This assay deals with T1, UNK ZnF1-6 (called full-length) (human, UniProt Q9C0B0 30-357).
T1 sequence: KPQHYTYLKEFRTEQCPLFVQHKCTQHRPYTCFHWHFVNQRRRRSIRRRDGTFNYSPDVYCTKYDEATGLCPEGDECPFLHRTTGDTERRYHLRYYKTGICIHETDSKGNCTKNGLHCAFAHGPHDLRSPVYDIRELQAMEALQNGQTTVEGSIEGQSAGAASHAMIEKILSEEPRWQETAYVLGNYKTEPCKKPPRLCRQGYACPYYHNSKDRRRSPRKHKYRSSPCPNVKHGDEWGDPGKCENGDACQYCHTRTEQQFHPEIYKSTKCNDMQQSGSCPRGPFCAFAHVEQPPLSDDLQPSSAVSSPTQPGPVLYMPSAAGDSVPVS
In words: nsRBNS (natural sequence RNA bind-n-seq); RBNS binding buffer (assumed for nsRBNS): 25 mM Tris pH 7.5, 150 mM KCl, 3 mM MgCl2, 0.01% Triton X-100, 500 ug/ml BSA, 20 U/ml SUPERase-In, 4 C; UNK is unkempt and MSI1 is Musashi-1; names of the RNAs are library labels; protein concentration not given here; high values mean tight binding.
B1 yielded a binding signal of 0.364 enrichment R.

With B2, the binding signal is 0.985 enrichment R.

B3: the binding signal came to 0.835 enrichment R.

B4 displayed a binding signal of 0.456 enrichment R.

B5 showed a binding signal of 0.433 enrichment R.

In turn, B6 displayed a binding signal of 1.3 enrichment R.

In the case of B7, the binding signal was 0.776 enrichment R.

In turn, B8 registered a binding signal of 3.46 enrichment R.

For B9, the binding signal is 1.61 enrichment R.

Consider B10, for which the binding signal turned out to be 7.26 enrichment R.

In turn, B11 displayed a binding signal of 1.63 enrichment R.

The molecule B12 displayed a binding signal of 1.48 enrichment R.

B13 had a binding signal of 2.67 enrichment R.

Regarding B14, the binding signal is 14.7 enrichment R.

Consider B15, for which the binding signal is 1.03 enrichment R.

For the molecule B16, the binding signal came to 0.575 enrichment R.

The molecule B17 gave a binding signal of 0.678 enrichment R.

Turning to B18, the binding signal came out at 0.336 enrichment R.

Regarding B19, the binding signal turned out to be 0.853 enrichment R.

Molecule B20 displayed a binding signal of 4.22 enrichment R.

B21 gave a binding signal of 0.289 enrichment R.

B22 had a binding signal of 1.58 enrichment R.
